Measured values from article PMC10726135.
Some of the results follow. At the low end of the ranking the order means little. Measured with an extract: partners may take part in the binding.

Target: T1, HNF4alpha8 (COS-7 nuclear extract) (UniProt P41235-5)
T1 sequence: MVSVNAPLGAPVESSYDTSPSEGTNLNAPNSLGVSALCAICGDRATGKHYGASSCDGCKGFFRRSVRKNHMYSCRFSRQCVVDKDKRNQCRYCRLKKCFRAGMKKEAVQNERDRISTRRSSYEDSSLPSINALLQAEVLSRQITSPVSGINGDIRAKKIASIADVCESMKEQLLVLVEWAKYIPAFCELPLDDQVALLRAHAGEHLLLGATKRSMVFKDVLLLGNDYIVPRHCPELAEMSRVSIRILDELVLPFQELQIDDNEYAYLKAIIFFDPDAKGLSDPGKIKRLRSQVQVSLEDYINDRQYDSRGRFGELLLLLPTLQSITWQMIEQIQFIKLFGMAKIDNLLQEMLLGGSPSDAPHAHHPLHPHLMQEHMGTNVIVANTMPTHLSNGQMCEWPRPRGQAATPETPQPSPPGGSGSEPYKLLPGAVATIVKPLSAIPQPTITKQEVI
Assay: protein-binding microarray
Conditions: COS-7 nuclear extract on double-stranded Agilent 4x180k PBM; binding buffer, salt, pH and temperature not given; high values mean tight binding; double strand, one strand shown; sequences stand for … in …GCCTAGGGAGATTAGAGTATCGGTCGA

Row | Sequence | binding signal (log2 normalized intensity)
1 | TGCCTTGGCCTCTGCAGACATGGACTCTGG | 4.6
2 | CTGTGCTTTGTTTACTTAACCTTTGATCAT | 7.84
3 | AAACCTTTGCCCAACAGGATTAGTGCTTCT | 0.276
4 | CCGGACGCGTCCTCGGCTCTGCGCAGGCGC | -1.23
5 | GACCCCTCCTCCCCCCGCCGCATCTACCAG | 5.7
6 | CCAGAGAAGCTGTGTAACCCTGGAGCCATA | -1.27
7 | TTGGACAAGGTAACCCCCAACATTCTTTCC | 2.67
8 | ATTGTTCCCTTGCTCCACCCTTCTATCCCC | 3.06
9 | AGTGCTGCATGCAAAAAGGCTGACCTTTGA | 8.62
10 | TGCAGAAAAGGCCCCAGGGATTGCACAGGA | -1.24
11 | CTGAGTGGAGGCCCAGTAAGTCCCACCCAC | 2.52
12 | CATCAGGTGAGATAAGAAGACTCCAGGGGA | -1.47
13 | TAGTATCCCTGAGTCATTTTTAGAAGCTCT | -1.26
14 | TTTCTCCATACCTCTTGCGTGTTATCTATG | 1.5
15 | GCCACCCATCAGTGGACTTTGACCTTGTTT | 10.8
16 | GGGAGGGGTGGACTTTGGCTTTTCCAAAGG | 5.04
17 | ATGGTGACCATGTGATGTGAAGAGTGTGGA | 1.31
18 | GTCACCACCTTTTTTGGCCTTTACCCCTTG | 5.31
19 | AACTGATATGGCTCTGTTTTACAAACACAA | -1.23
20 | GACACTTCCAGCCAAACCAGGTCATGCATT | 0.387
21 | TCTACTGCTCTATTTAGACTCAGCATGTCT | 0.275
22 | CTGGGAATGACATTTTGGACTACTTCATGT | 1.63
23 | AGCTAATCTAGAGACACTATGTGCATTCCA | -1.28
24 | TTCCCAGCTAAATAAATAACTCTAAGAAAT | -1.3

Row | Sequence | binding signal (log2 normalized intensity)
25 | CTCACGGTAACAGCCGGAGAGGCAAGTATG | -1.18
26 | ACTCAAAGGTCAAATGACAGAAGCAGGACT | 2.24
27 | GACATGAAGGACATAAATGTGCCCAGATAA | -0.092
28 | AGAGTCTGACAGAACTAAGCTGTTGCGTAA | -1.3
29 | GCTCTCCCATAAGAATCCTTTTCATTCTTT | -0.00663
30 | TGTTTATCCTTCAACAATTCTATGAGTAGG | 0.484
31 | GGGGCTGGCATGTCTCTGGTCAGGGAGGGC | 0.5
32 | TTGGGTGACTTTCTTCCTATGGGATCAAAG | 1.1
33 | AGCTCTTGCTGGTCAAGCTAAGCACAACTG | -1.3
34 | ACTTGCCCTCAGTAAAGGACAAAGTCAACG | 2.02
35 | GGAGGGGAAGAAAGGAATGTGCCTGCAAGT | -1.33
36 | ACTCTGGGAGCCCTGGGGTAATAAATAAAG | -0.97
37 | TTTCCAAAGAGCAGCTAGCTCCAGTTGGTT | -1.24
38 | AGTGGGTCTAGGTTCTGGGGTGATTACCCT | 1.92
39 | TGACCTGGTACTATGACCTTTCACCTTTTA | 7.78
40 | GGGGTGGGGAGGATAGCAGCCCAGCAAAGA | -1.26
41 | ACATCAGAAGTTGGACTTTGTACATTCCAA | 8.13
42 | TCAGGCCCAGAAACACTGAACCTTGTCCCA | 4.01
43 | TCCGAGCCATTTTGGAGCCGGTGTCAGTTT | 1.18
44 | TGCCTGCAGGAGAGAGCAAAGTCCACGCAT | 6.82
45 | CCTGAAAGGTAGGCAGAGAGGCTGCTCAGT | -1.18
46 | CCTTTGGACTGTGACCCCACCTCTCAGACA | 5.4
47 | ACCCTTCCCTAAGATTTATCCCAAATGTTT | 1.14
48 | ATGTGCCTGATGGGATGAGAGAGCCCCTGT | 1.67

Row | Sequence | binding signal (log2 normalized intensity)
49 | CTGGCAGGGAGGAGGGATCAAGCAGGTGAC | -0.994
50 | AACAGCGAACATGAGGAATAAACTTCTGTC | -1.2
51 | AGAATTGAAGAGAGTTAGGGCCTTGCTATG | -1.01
52 | ACAGCTCTTGTGCTCTGGACATACCTCTAA | -1.06
53 | CAAAGGACCAAAAGATATTTGCTGCTGACA | -1.2
54 | ACTACTAACCGAAAGTCTGACCCTTGACCA | 7.2
55 | GGAATGTGGATGCTGGAATGAGGGAGGCAG | -1.11
56 | ACCTGGGCAACAGGGAGCCCTTATATCCAC | -1.42
57 | CCTTCTTGGCAAGTTAATGTGGCCTAATGT | 1.85
58 | CCAATGTTTACCAGCTCTGTTGCTTATCTT | 0.114
59 | CTGAACTTTAGCTCACTGTTGAACATTAAC | 1.54
60 | TGAAATTTGTATCTTGGGTTAGGCCTTTAG | 0.771
61 | ACAGCCTCTAAGCACGGCCAGGATTAACCA | -1.24
62 | AGGACATAGTCCTCTGCATATTTCTGCTAC | -1.34
63 | CCTTTTATTTTCTTATCTGCCTAGGCATTT | 1.58
64 | CACGGTGGACATTGTCCAAGGGCTGTAGCA | 0.859
65 | GGGTTCAGATGAAAGGCGGCAACTTCTTCA | -1.26
66 | TTCTTTTATCACTTTGTAATGTCCCTCTTT | 2.06
67 | ACCCATGTTTGCCCTTGATAAGAGCTGCTC | 0.685
68 | TCACGGCAGCTTGTACCCTTCTTTCCACCC | 1.7
69 | TCTCTGCTGGGCAGAGGGACAACTGAGTTA | 0.311
70 | AAGCAATAGGGTTCGGTGCAATAACACCTA | -1.2
71 | AGGTGGTTCACAAATAGCAGAAAATCCAGG | -0.907
72 | AAGGCTTTGAAGTCTGGTGGCAAGTACCCT | -0.423
